The values that follow come from PubChem BioAssay AID1347044 (National Center for Advancing Translational Sciences (NCATS), 2019).

Molecules are shown by their SMILES. The list shows a part of the results. Further columns of the screen follow, without active or inactive calls. Most of these compounds were active or inconclusive in the main read-out, so they are no random draw. Words in brackets tell the shape of the fitted curve; partial curves, single points and poor fits give uncertain potencies.
Tags give direction and shape of the fitted curve.

A short description of this assay: Natriuretic polypeptide receptor (hNpr1) antagonism - Confirmation. Note: nearly all actives have a fitted effect of over 70% in size. The following applies: HEK293 hNpr1 cGMP GloSensor luminescence, ANP-stimulated; measured here: HEK-hNpr1 cytotoxicity, CellTiter-Glo. The gist of the method:
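HEK293 cells expressing hNpr1 and the pGS-40F GloSensor cGMP sensor, loaded with 2% GloSensor reagent for 2 h, then treated 30 min with compound at room temperature. Luciferase luminescence read before and 20 min after 0.1 nM hNppA stimulation.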
Take `NC(=O)Cc1c[nH]c2ncc(-c3ccccc3C(F)(F)F)cc12`: the CC50 is 28 µM [falling, partial curve].
To `CN1C[C@@H](NC(=O)Nc2cccc(C#N)c2)C[C@H]1c1nc(-c2ccc(Cl)cc2)no1` belongs 22.2 µM [falling, partial curve]; to `COc1ccc(C2Cn3nnc(C(=O)N4CCN(C(=O)c5ccc(C)cc5C)CC4)c3CO2)cc1` (centres undefined), 21.7 µM [falling, partial curve].
`CCc1cnc(N2CCC(COc3ccc4c(cnn4CC[S+](C)(=O)[O-])c3)CC2)nc1`: the CC50 was 10.9 µM [falling, partial curve].
To `CC(CCc1ccco1)NC(=O)CN1CCCc2nc(-c3ccccc3)ncc2C1=O` (centres undefined) belongs 19.3 µM [falling, partial curve]; to `COCCN1CCCC2(CCN(c3nc(C)nc4sccc34)C2)C1=O` (centres undefined), 17.2 µM [falling, partial curve].
As for `COC(=O)c1ccc(NC(=O)N2CC(Oc3cccc(-c4nc(C)no4)c3)C2)cc1`, the figure is 34.3 µM [falling, single point]; as for `O=C(c1cccc(F)c1)N1CCN(c2cc(-c3ccc(Cl)cc3)[nH]n2)CC1`, 21.7 µM [falling, partial curve, poor fit].
As for `COc1cccc(-c2ccc(CN3C4CCC3CN(C(=O)c3ccncc3)C4)cc2)c1`, the figure is 12.2 µM [falling, partial curve]; as for `CN(C)c1cccc(-c2cnc3[nH]cc(CC(=O)N4CCOCC4)c3c2)c1`, 31.4 µM [falling, partial curve].
`CCOc1ccc(CC(=O)N2CCC(Cc3nc(-c4ccc(OC)cc4)no3)CC2)cc1OCC`: the CC50 was 21.7 µM [falling, partial curve].
Regarding `COc1nccc(N2CCC(CC(=O)N3CCCN(c4ncccn4)CC3)CC2)n1`, the CC50 is 21.7 µM [falling, partial curve].
As for `O=C(OCc1ccccc1)N1CCC2(CC1)C(=O)NN=C2c1cccnc1`, the figure is 19.3 µM [falling, partial curve].
To `CCCc1cc(C(=O)N2CCC(=O)N(Cc3ccccc3)C(CC)C2)ccn1` (centres undefined) belongs 9.68 µM [falling, partial curve]; to `COc1ccc(-c2noc(CC3CCN(C(=O)c4cc(F)cc(F)c4)CC3)n2)cc1`, 10.9 µM [falling, partial curve].
As for `COc1cc(C(=O)N2CCC(Cc3nc(-c4ccc(F)cc4)no3)CC2)cc(OC)c1OC`, the figure is 19.3 µM [falling, partial curve].
In the case of `CC(C)Cc1cn(CC2CCCN(C(=O)NC3CCCCCC3)C2)nn1` (centres undefined), the CC50 is 17.2 µM [falling, partial curve].
To `O=C(c1ccc2c(c1)OCO2)N1CCN(c2cc(-c3ccc(Cl)cc3)[nH]n2)CC1` belongs 43.2 µM [falling, single point].
As for `O=C(c1ccccc1Br)N1CCN(c2cc(-c3ccc(Cl)cc3)[nH]n2)CC1`, the figure is 12.2 µM [falling, partial curve]; as for `COc1ccc(NC(=O)N[C@H]2CO[C@H]3[C@@H]2OC[C@H]3OC(=O)Nc2ccc(Oc3ccccc3)cc2)cc1`, 19.3 µM [falling, partial curve].
As for `O=C(Nc1cccc2ccccc12)O[C@@H]1CO[C@H]2[C@@H]1OC[C@@H]2NC(=O)c1cccs1`, the figure is 31.4 µM [falling, partial curve]; as for `CN(Cc1noc(C2CCCC2)n1)c1cc(C2CC(O)C2)ncn1` (centres undefined), 19.3 µM [falling, partial curve]; as for `COc1ccc(CCC(=O)N2CCCC(n3cc(-c4nc(-c5ccccc5)no4)nn3)C2)cc1` (centres undefined), 27.3 µM [falling, partial curve].
For `COc1ccc(CCC(=O)N2CCC(Cc3nc(-c4ccc(OC)cc4)no3)CC2)cc1`, the CC50 was 19.3 µM [falling, partial curve].
Regarding `O=C(CCCc1ccccc1)N1CCC(Cc2nc(-c3ccc(F)cc3)no2)CC1`, the CC50 is 19.3 µM [falling, partial curve].
To `COc1ccc(-n2nc(C)c([C@H]3C=C[C@@H](OC(=O)N[C@H](C)c4ccccc4)C3)c2C)cc1` belongs 19.8 µM [falling, partial curve]; to `Cc1ncsc1C(=O)N1CCNc2cnc(Nc3cccc(F)c3)nc2C1`, 19.8 µM [falling, partial curve]; to `Cc1ccc(C2Cn3nnc(C(=O)N4CCN(C(=O)c5cccc(Cl)c5)CC4)c3CO2)cc1` (centres undefined), 19.3 µM [falling, partial curve].
To `CC(=O)NC1(C)CCCN(c2ccc(Oc3ccccc3)cc2)C1` (centres undefined) belongs 17.7 µM [falling, partial curve]; to `Cc1noc2c(-c3cn[nH]c3)cc(-c3cccc(C(F)(F)F)c3)nc12`, 62.7 µM [falling, single point]; to `COc1ccc(-c2noc(CC3CCN(C(=O)CC4CCCCC4)CC3)n2)cc1`, 15.3 µM [falling, partial curve].
To `CC1=C[C@@H](CNC(=O)c2ccccn2)[C@H](C(C)C)C[C@H]1Cc1nnc(-c2ccncc2)o1` belongs 31.4 µM [falling, partial curve]; to `Cc1ccc(C(=O)N2CCN(c3cc(-c4ccccc4)[nH]n3)CC2)c(C)c1`, 19.3 µM [falling, partial curve]; to `COc1ccc(NC(=O)c2ccc(-c3nnc4ccc(NC(=O)C5CCC5)cn34)cc2)cc1`, 17.2 µM [falling, partial curve].
`COc1ccc(C(=O)N2CCC3(CC2)N=C(c2ccc(Cl)cc2)NO3)cc1F`: the CC50 is 21.7 µM [falling, partial curve].
As for `Cc1cn2nnc(C(=O)NCc3ccc(C(C)C)cc3)c2c(=O)[nH]1`, the figure is 34.3 µM [falling, single point]; as for `COc1cccc(CCC(=O)N2CCC(Cc3nc(-c4cccc(OC)c4)no3)CC2)c1`, 21.7 µM [falling, partial curve]; as for `O=C(c1[nH]nc2c1CCc1ccccc1-2)N1CCC(c2noc(-c3cccnc3)n2)C1` (centres undefined), 34.3 µM [falling, single point].
As to `Cc1nc(C)c(CC(=O)N2CCCC(C)(Cc3ccc4c(c3)OCO4)C2)s1` (centres undefined), the CC50 is 21.7 µM [falling, partial curve].
